Experimental data reported in publication PMC13083723 (Patterns, 2026).
Hit rate of the full screen: of about 5,400 compounds, about 190 (3.5%) showed an effect of 50% or more. This is one part of the list. Residues, ends and D or L forms follow the SMILES beside them. *: point of attachment. NHCH2CH2OH = OCCN*; For = O=C*

tested on: Vero-E6; test: primary screen, phospholipidosis by LipidTOX staining; higher = more effect of the substance; details: 10 µM
Method in brief: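 Drug-induced phospholipidosis detected with HCS LipidTOX Red reagent in Vero-E6 cells. Compounds tested at 10 μM, with amiodarone (10 μM) as positive control and DMSO (0.1 v/v %) as vehicle.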

Compared with CC(C)NCC(O)c1ccc(O)c(O)c1 (stereo not shown), C[C@H](NC[C@H](O)CP(=O)(O)CC1CCCCC1)c1ccc(Cl)c(Cl)c1 is lower in result_ITMP: -2.95% for the first, -3.93% for the second.

Compared with CS(=O)(=O)N1CCN(Cc2cc3nc(-c4cccc5[nH]ncc45)nc(N4CCOCC4)c3s2)CC1, Nc1nc2cc(-c3ccc4ncc(C(=O)N5CCOCC5)n4c3)ccc2o1 is lower in result_ITMP: 9.24% for the first, -0.2% for the second.

First: CC(C)(C)NC(=O)[C@@H]1C[C@@H]2CCCC[C@@H]2CN1C[C@@H](O)[C@H](Cc1ccccc1)NC(=O)[C@H](CC(N)=O)NC(=O)c1ccc2ccccc2n1
Second: O=C(O)C(Cc1ccccc1)CN(O)C(=O)Cc1ccccc1 (stereo not shown)
The result_ITMP of the first is lower: -3.77% for the first, 3.29% for the second.

First: CC1C[C@H]2[C@@H]3CCC4=CC(=O)C=C[C@]4(C)[C@@]3(Cl)[C@@H](O)C[C@]2(C)[C@@]1(O)C(=O)CO (stereo partly shown)
Second: CC1(C)O[C@@H]2C[C@H]3[C@@H]4CCC5=CC(=O)C=C[C@]5(C)[C@H]4[C@@H](O)C[C@]3(C)[C@]2(C(=O)CO)O1
The result_ITMP of the first is lower: -1.12% for the first, 5.48% for the second.

First: c1ccc(C(O[C@@H]2CCCN(CCc3ccc4c(c3)OCO4)C2)c2ccccc2)cc1
Second: O=c1sn(-c2cccc3ccccc23)c(=O)n1Cc1ccccc1
The result_ITMP of the first is higher: 3.22% for the first, -0.73% for the second.

First: O=C(Oc1ccccc1)c1ccccc1O
Second: O=C(Nc1cc2cc[nH]c2cn1)c1ccccc1
The result_ITMP of the first is lower: -5.49% for the first, 4.15% for the second.

Going from COc1ncnc(NS(=O)(=O)c2ccc(N)cc2)c1OC to COc1ccc(S(=O)(=O)Nc2cccnc2Nc2ccc(O)cc2)cc1, the result_ITMP rises from -4.3% to 20.1%.

Going from C[C@]12CCC(=O)C=C1CC[C@@H]1[C@@H]2C(=O)C[C@]2(C)C(=O)CC[C@@H]12 to C[C@]12C[C@H](O)[C@H]3[C@@H](CCC4=CC(=O)CC[C@@]43C)[C@@H]1CC[C@@H]2C(=O)CO, the result_ITMP falls from -0.84% to -2.04%.

Going from CC(=O)O.CC(=O)O.N.NC1CCCCC1.[Cl][Pt][Cl] to CO[C@@H]1[C@H](OC(=O)NC(=O)CCl)CC[C@]2(CO2)[C@H]1[C@@]1(C)O[C@@H]1CC=C(C)C, the result_ITMP rises from -1.8% to 16.1%.

Compared with CCCCOC(=O)c1ccccc1Nc1cccc(C(F)(F)F)c1, Cc1ccccc1C(=O)c1ccc(Nc2ccc(Br)cc2N)cc1Cl is higher in result_ITMP: -2.32% for the first, -0.52% for the second.

First: CCn1c(-c2ccc(Cl)cc2)n[nH]c1=O
Second: CCc1ccc2c(-c3cccc(Cl)c3)nc(=O)n(CC)c2n1
The result_ITMP of the first is higher: -4.76% for the first, -12% for the second.

First: Cc1cc(C(=O)Nc2nc3cccc(Cl)c3n2[C@@H]2CCCCN(C(=O)/C=C/CN(C)C)C2)ccn1
Second: Cc1ccc(NC(=O)c2cccc(N(C)C)c2)cc1NC(=O)c1ccc(O)cc1
The result_ITMP of the first is higher: 37.9% for the first, -6.05% for the second.

Going from C[C@]12CC[C@H](O)CC1=CC[C@@H]1[C@@H]2CC[C@]2(C)C(c3cccnc3)=CC[C@@H]12 to C[C@]12CC[C@H](O)CC1=CCC1C2CC[C@]2(C)C(n3cnc4ccccc43)=CCC12 (stereo partly shown), the result_ITMP rises from -5.26% to -2.43%.

Compared with CCOC(=O)C1=C(C)NC(C)=C(C(=O)OCC)C1c1ccccc1/C=C/C(=O)OC(C)(C)C, COC(=O)C1=C(C)NC(C)=C([N+](=O)[O-])C1c1ccccc1C(F)(F)F (racemic) is lower in result_ITMP: 2.86% for the first, 2.07% for the second.

Going from CCc1ccc(Cc2ccc3c(c2)[C@]2(OC3)O[C@H](CO)[C@@H](O)[C@H](O)[C@H]2O)cc1 to COc1cccc([C@H](O)C2CCN(CCc3ccc(F)cc3)CC2)c1OC, the result_ITMP rises from -1.43% to 1.34%.

First: Cn1c(=O)n(-c2ccc(C(C)(C)C#N)cc2)c2c3cc(-c4cnc5ccccc5c4)ccc3ncc21
Second: Cc1ccc2cc(-c3c(C)ccc(C(=O)c4c(-c5ccccc5)n(C)n(-c5ccccc5)c4=O)c3N)ccc2n1
The result_ITMP of the first is higher: 1.31% for the first, -1.64% for the second.

First: CCOc1cc(CC(=O)N[C@@H](CC(C)C)c2ccccc2N2CCCCC2)ccc1C(=O)O
Second: Cc1ccc(S(=O)(=O)Nc2ccc3c(c2)c(C(=O)C(F)(F)F)cn3CC(=O)N[C@@H](CC(C)C)C(=O)O)cc1
The result_ITMP of the first is lower: -8.44% for the first, -8.25% for the second.

First: Cc1cc(C)c2nc(-c3ccccn3)cc(C(=O)Nc3ccc(S(=O)(=O)Nc4onc(C)c4C)cc3)c2c1
Second: COc1cc(S(C)(=O)=O)ccc1Nc1nc2ccc(-c3ccc(NC(=O)[C@H](C)c4ccc(F)cc4)cc3)cn2n1
The result_ITMP of the first is lower: -2.6% for the first, 0.09% for the second.

First: O=C(O)c1ccc(OCCn2ccnc2)cc1
Second: O=C(O)c1ccc2c(c1)nc(Nc1cccc(Cl)c1)c1ccncc12
The result_ITMP of the first is higher: -2.18% for the first, -4.43% for the second.

Going from CCCCN(CCCC)CCC(O)c1cc2c(Cl)cc(Cl)cc2c2cc(C(F)(F)F)ccc12 (stereo not shown) to CCN(CC)CCOc1ccc2c(c1)C(=O)c1cc(OCCN(CC)CC)ccc1-2, the result_ITMP falls from 68.8% to 57.2%.

First: CN[C@@H]1[C@@H](O)[C@@H](O[C@@H]2[C@@H](O)[C@H](O[C@H]3O[C@H](CN)[C@@H](O)[C@H](O)[C@H]3O)[C@@H](N)C[C@H]2NC(=O)[C@@H](O)CN)OC[C@]1(C)O
Second: CC[C@H]1OC(=O)C[C@@H](O)[C@H](C)[C@@H](O[C@@H]2O[C@H](C)[C@@H](O[C@H]3C[C@@](C)(O)[C@@H](O)[C@H](C)O3)[C@H](N(C)C)[C@H]2O)[C@@H](CC=O)C[C@@H](C)C(=O)/C=C/C(C)=C/[C@@H]1CO[C@@H]1O[C@H](C)[C@@H](O)[C@@H](OC)[C@H]1OC
The result_ITMP of the first is lower: -2.63% for the first, 15.5% for the second.

Compared with COc1cc(F)c(F)c(Nc2ccc(I)cc2F)c1NS(=O)(=O)C1(C[C@H](O)CO)CC1, C[C@H](Oc1ccc(S(C)(=O)=O)cc1C(=O)N1CCN(c2ncc(C(F)(F)F)cc2F)CC1)C(F)(F)F is lower in result_ITMP: 5.24% for the first, 0.3% for the second.

Compared with O=S(=O)(c1ccccc1)N(CC(F)(F)F)c1ccc(C(O)(C(F)(F)F)C(F)(F)F)cc1, O=C1C(=Cc2cccnc2)C(=O)c2ccccc21 is lower in result_ITMP: -1.73% for the first, -2.75% for the second.

Going from Nc1c2c(nc3ccccc13)CCCC2 to Cn1cc(C[C@@H](N)C(=O)O)c2ccccc21, the result_ITMP rises from 5.94% to 5.95%.

Compared with Oc1cc(O)cc(O)c1, O=c1cc(-c2ccccc2)oc2cc(O)cc(O)c12 is higher in result_ITMP: -3.47% for the first, -1.68% for the second.

First: COc1ccc2c(c1)c(C1=C(c3c[nH]c4ccccc34)C(=O)NC1=O)cn2CCCN(C)C
Second: Cc1cccc(-c2n[nH]cc2-c2ccc(F)c(-c3cnn(CCO)c3)c2)n1
The result_ITMP of the first is higher: 120% for the first, -7.98% for the second.

First: Cc1cc(OCCCS(C)(=O)=O)cc(C)c1-c1cccc(COc2ccc3c(c2)OC[C@H]3CC(=O)O)c1
Second: C/C(=C(\CCOP(=O)(O)O)SC(=O)c1ccccc1)N(C=O)Cc1cnc(C)nc1N
The result_ITMP of the first is higher: -1.57% for the first, -10.3% for the second.

Going from CCN(CC)C(=S)SSC(=S)N(CC)CC to CC(C)=CCC/C(C)=C/CC/C(C)=C/CCC(O)OC/C=C(\C)CCC=C(C)C (stereo not shown), the result_ITMP falls from -1.1% to -2.12%.

First: C[C@H](CCC(=O)[O-])[C@H]1CCC2C3C(=O)CC4CC(=O)CC[C@]4(C)C3CC(=O)[C@@]21C (stereo partly shown)
Second: CC(C)(C)C(=O)OCC(=O)[C@H]1CC[C@H]2[C@@H]3CCC4=CC(=O)CC[C@]4(C)[C@H]3CC[C@]12C
The result_ITMP of the first is higher: 4.65% for the first, -0.94% for the second.

First: O=C(CCCCCN1C(=O)c2cccc3cccc(c23)C1=O)NO
Second: O=C(CCCCCCC(=O)Nc1ccccc1)NO
The result_ITMP of the first is higher: -2.63% for the first, -5.13% for the second.

Going from COc1ccc(CN2CCNCC2)c(OC)c1OC to O=C1NCCc2[nH]c(-c3ccncc3)cc21, the result_ITMP rises from -3.48% to 0.77%.

Compared with C[C@H](N)C(=O)N[C@@]1(C(=O)O)C[C@@H](Sc2nnc[nH]2)[C@H]2[C@H](C(=O)O)[C@H]21, CCNC(=O)CCC/C=C\C[C@@H]1[C@@H](/C=C/[C@@H](O)CCc2ccccc2)[C@H](O)C[C@@H]1O is lower in result_ITMP: -1.74% for the first, -4.18% for the second.

First: O=C1CC(=O)c2c(Cl)c(Cl)c(Cl)c(Cl)c21
Second: CCCCOc1ccc(CC/C=C2\SC(=O)N(CCN)C2=O)cc1
The result_ITMP of the first is lower: -8.99% for the first, 10% for the second.

Going from C/C=C/C[C@@H](C)C(=O)[C@H]1C(=O)N[C@@H](C(C)C)C(=O)N(C)CC(=O)N(C)[C@@H](CC(C)C)C(=O)N[C@@H](C(C)C)C(=O)N(C)[C@@H](CC(C)C)C(=O)N[C@@H](C)C(=O)N[C@H](C)C(=O)N(C)[C@@H](CC(C)C)C(=O)N(C)[C@@H](CC(C)C)C(=O)N(C)[C@@H](C(C)C)C(=O)N1C to CC(C)CC(NC(=O)C(C)NC(=O)CNC(=O)C(NC=O)C(C)C)C(=O)NC(C)C(=O)NC(C(=O)NC(C(=O)NC(C(=O)NC(Cc1c[nH]c2ccccc12)C(=O)NC(CC(C)C)C(=O)NC(Cc1c[nH]c2ccccc12)C(=O)NC(CC(C)C)C(=O)NC(Cc1c[nH]c2ccccc12)C(=O)NC(CC(C)C)C(=O)NC(Cc1c[nH]c2ccccc12)C(=O)NCCO)C(C)C)C(C)C)C(C)C (stereo not shown) (For-VGALAVVVWLWLWLW-NHCH2CH2OH; configuration not given here), the result_ITMP falls from -4.53% to -8.15%.

First: CCCCCCCCCCCC(N=O)c1cc(C)ccc1O (stereo not shown)
Second: CCCCNc1nc(N)c2[nH]c(=O)n(Cc3ccc(OCCN(C)C)nc3)c2n1
The result_ITMP of the first is higher: 1.92% for the first, 1.08% for the second.

First: NCCCCCNCC12CC3CC(CC(C3)C1)C2
Second: C#C[C@]1(O)CC[C@H]2[C@@H]3CCC4=CC(=O)CC[C@@H]4C3CC[C@@]21CC (stereo partly shown)
The result_ITMP of the first is higher: 16.8% for the first, -2.07% for the second.

First: c1cnc2cc3c(cc2n1)C1CNCC3C1
Second: CNc1nc(C)nc(N[C@H]2CCC[C@@H](C(=O)NCc3ccc(C#N)cc3C(F)(F)F)C2)n1
The result_ITMP of the first is lower: -2.31% for the first, -2.22% for the second.

First: O=C(/C=C/c1ccc(O)c(O)c1)c1ccc(O)cc1O
Second: CN1Cc2ccccc2[C@@H]2c3cccc4[nH]cc(c34)C[C@H]21
The result_ITMP of the first is lower: -4.21% for the first, 2.12% for the second.
